# In the supplement of paper PMC3334620:
# The full ranking holds about 33,000 sequences; the median of “E-score (-0.5 to 0.5)” is about -0.04, and the highest 2% start at about 0.36. The list shows a part of the results.
# Target: T1, Hmlalpha2 (UniProt P0CY09)
# T1 sequence: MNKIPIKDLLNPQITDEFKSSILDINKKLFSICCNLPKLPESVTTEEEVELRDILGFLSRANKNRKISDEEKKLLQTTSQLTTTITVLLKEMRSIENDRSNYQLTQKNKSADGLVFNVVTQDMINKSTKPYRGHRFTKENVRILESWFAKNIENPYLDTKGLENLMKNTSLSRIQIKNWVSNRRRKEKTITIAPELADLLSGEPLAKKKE
# Assay: PBM E-score (8-mer binding enrichment) (E-score (-0.5 to 0.5)); higher = stronger / more preferred TF binding; most listed sequences are background and not binding sites
# Details: protein concentration: 200 nM; construct: GST-full length
# Experimental: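 Universal 'all 10-mer' protein binding microarrays (Agilent AMADID 015681) probed with GST-tagged S. cerevisiae TFs (full-length or DBD) made by in vitro transcription/translation (PURExpress), about 100-200 nM. Bound TF was detected with fluorescent anti-GST. Each ungapped 8-mer (which stands for itself and its reverse complement) is scored by the PBM enrichment score (E-score), a modified Wilcoxon-Mann-Whitney statistic from -0.5 to +0.5, computed with the Universal PBM Analysis Suite. Scale: above 0.35 generally sequence-specific binding.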
row,Sequence,PBM E-score
1,AGATACGC,-0.00425
2,ACGTCCTC,-0.162
3,CAAAATAA,0.146
4,ATCTGAGA,-0.228
5,CACATATC,0.0564
6,ATTCTACC,0.209
7,GATGACCA,0.0315
8,CGACTGGC,-0.256
9,ATACAAGC,0.308
10,ACTTTATA,0.0554
11,CTGTTGAC,0.156
12,CAGGGTGG,-0.252
13,ACATGTGA,0.277
14,AATACACC,0.307
15,CGACCTAG,-0.101
16,GATCATAC,0.0883
17,AGGAATGG,-0.133
18,AGACTTCC,-0.3
19,CTTTGTCA,0.172
20,ACCGCAAG,-0.115
21,GCGCTTCC,-0.0816
22,GCTTGAAA,0.0512

row,Sequence,PBM E-score
1,ATAACGTC,0.155
2,TCGCTTCA,-0.0525
3,GCCCCAAA,-0.0423
4,GGCAGACA,-0.238
5,AAGTGGGT,-0.117
6,AAGCGCGT,0.206
7,ACATTCGC,0.103
8,AAGAGTAG,-0.0535
9,ACCAACGT,0.113
10,TGAGGAAA,0.0422
11,CGTGAAGC,-0.21
12,ACGGCTAC,0.0889
13,CCGGACCC,-0.205
14,CAGTTAAG,0.155
15,AAGGACGC,-0.164
16,ATGAAAAA,0.122
17,ACCGGTCT,-0.25
18,AGTTTCAG,-0.0712
19,GACAACGA,0.108
20,GAGATGCC,-0.112
21,ATCAATAC,0.226
22,TAGGTCGA,0.0154

row,Sequence,PBM E-score
1,CCCTTATC,-0.0289
2,CTGTGAAC,-0.0038
3,GGCCCCTA,-0.258
4,CTTTAGCC,-0.0346
5,CATCGTGA,-0.152
6,ATAGTGGA,0.0705
7,CGTTCGTC,0.165
8,ATACAACA,0.355
9,GTAGGCTA,0.0655
10,AGAGCTCC,-0.252
11,ACAAACGG,0.0598
12,ATCGGCAG,-0.121
13,ACTCACTA,0.105
14,GAGATAAC,0.197
15,GTAGATCA,0.189
16,GTAAGTAA,0.2
17,CGAGTAGC,-0.00175
18,ATACAGAC,0.124
19,ATAGAGAC,-0.214
20,CTTATTCC,-0.177
21,AGCTTCAC,0.0362
22,CGGCGACC,-0.348

row,Sequence,PBM E-score
1,TACCTGGA,-0.0428
2,AAAAGATC,-0.101
3,TGAAGTAA,0.0779
4,GAGCTCCC,-0.322
5,ACTTAACC,0.199
6,AGCGCCAC,-0.225
7,ATCAGGAG,-0.118
8,ACGCGCTC,0.199
9,GTAATCTA,0.346
10,CACCATGG,-0.125
11,ATCTACAA,0.307
12,ACATGCGC,0.308
13,AAGGGGAC,-0.0926
14,TGCTATAA,-0.0105
15,AATAAATT,0.198
16,ATAGTGAG,-0.0515
17,AAGTGGAC,-0.184
18,CACATGCA,0.234
19,CCCTGTCG,-0.129
20,ATCAGGTA,0.0961
21,AGCCTAAA,-0.0705
22,ACTAAAAT,0.136

row,Sequence,PBM E-score
1,TCGGACGA,-0.0603
2,AGCAACTG,-0.138
3,CTATTCCA,0.0558
4,ATGCGGCG,-0.153
5,AATCCAGA,0.00071
6,GTCCTGAA,-0.158
7,CTGGACAC,-0.109
8,AACATTCT,0.285
9,AAACTGTT,0.12
10,AACTCGTG,0.0963
11,CAGAAGAA,-0.252
12,AGCCCGGG,-0.17
13,AGGATCAT,0.0783
14,AATCGCCC,-0.35
15,GCGGGGTA,-0.232
16,GGTGAGGA,-0.231
17,TACAATGA,0.18
18,CTAAATAA,0.309
19,GCAATCAA,0.0206
20,CCGCGACA,-0.0213
21,ATTACCCC,-0.0121
22,TAGCAAGA,0.133
